{"source": "PubChem BioAssay AID540267", "about": "(National Center for Advancing Translational Sciences (NCATS), 2011)", "note": "The campaign covered roughly 340,000 compounds. About 530 (0.16%) were called active. The inconclusive results got no clear call from the source; some entries with a clear call stand among them for comparison. No stated cut-off is given here; in the data, active means activity change below about -80%; inconclusive means between about -30% and that limit; inactive means weaker than that. On the % scale 0 is the no-effect control and ±100 the full control effect.", "data": [{"test": "Small Molecules that selectively kill Giardia lamblia: qHTS;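 further: parasites exposed to compound for two days anaerobically before the ATP read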", "conditions": "Giardia lamblia trophozoite viability; at 7.66 µM; stronger effect = lower value", "text": "Giardia lamblia is a human pathogen afflicting impoverished nations, and the most common cause of outbreaks of diarrhea in the United States. Giardia has been classified by the CDC as a category B bioterrorism organism. The favored anti giardiasis drugs in the US are metronidazole or tinidazole, compounds that have undesirable side effects. Moreover, increasing resistance to drug regimes and recurrence are a concern. It is thus clear that alternative drug treatments are needed.\nIn a collaboration between the University of Maryland, College Park and the NIH Chemical Genomics Center, a bioluminescence Giardia viability assay based on the trophozoites' ATP content was developed. This assay is suitable for high throughput screening, and miniaturized the assay for compound screening in 1536-well plates. The goal of the project is to screen the Molecular Libraries Small Molecule Repository (MLSMR) for compounds that selectively kill Giardia trophozoites.\nNIH Chemical Genomics Center [NCGC]\nNIH Molecular Libraries Probe Centers Network [MLPCN]\nAssay Submitter (PI): Osnat Herzberg, University of Maryland, College Park, MD.\n1. Dispense 2 ul/well media\n2. Dispense 23 nl/well compounds\n3. Dispense 4 ul/well Giardia trophozoites at a concentration of 100 cells/well\n4. Incubate 48 hrs at 37 deg C anaerobically\n5. Dispense 4 ul/well ATPLite 1-Step Luminescence assay kit\n6. Incubate 15-30 min at room temperature\n7. Read luminescence signal on ViewLux plate reader", "values": [{"smiles": "CCOC(=O)[C@H](CCc1ccccc1)N[C@@H](C)C(=O)N1CCCC1C(=O)O", "note": "(some centres undefined)", "activity change": "inconclusive: -40.3% [inhibitor]"}, {"smiles": "COc1cccc(/C=N/n2c(-c3ccco3)nc3ccccc3c2=O)c1OC", "activity change": "inactive: 5.26%"}, {"smiles": "Cc1ccc2c(c1)c1c(n2C)C(C(N)=O)CCC1", "note": "(centres undefined)", "activity change": "inactive: 11.7%"}, {"smiles": "O=C(O)C(NS(=O)(=O)c1ccc(F)cc1)c1ccccc1", "note": "(centres undefined)", "activity change": "inconclusive: -31.3% [inhibitor]"}, {"smiles": "CC(=O)Nc1ccc(Nc2nc(-c3ccccc3)nc3ccccc23)cc1", "activity change": "inactive: 13.5%"}, {"smiles": "O=C(Cc1ccccc1)Nc1ccc2[nH]ncc2c1", "activity change": "inconclusive: -32.5% [inhibitor]"}, {"smiles": "CCC1CCCCN1C(=O)CCS(=O)(=O)c1ccccc1", "note": "(centres undefined)", "activity change": "inconclusive: -31.4% [inhibitor]"}, {"smiles": "C/C(=N\\NC(=O)c1cccc(S(=O)(=O)Nc2ccccc2Cl)c1)c1ccco1", "activity change": "inconclusive: -31.7% [inhibitor]"}, {"smiles": "CCCNc1c(N)n(-c2ccccc2)c(=O)[nH]c1=O", "activity change": "inactive: -23.7%"}, {"smiles": "O=C(O)c1c(F)c(F)c(F)c(F)c1-c1ccc(Cl)cc1", "activity change": "inconclusive: -33.2% [inhibitor]"}, {"smiles": "O=c1c(Cl)c(N2CCCCC2)cnn1-c1nc2ccccc2[nH]1", "activity change": "inconclusive: -70.5% [inhibitor]"}, {"smiles": "O=C(CC1C(=O)N(c2ccccc2)C(=S)N1c1ccccc1)c1ccccc1", "note": "(centres undefined)", "activity change": "inactive: 11.6%"}, {"smiles": "O=c1c(-c2ccc3c(c2)OCCO3)coc2c(CN3CCOCC3)c(O)ccc12", "activity change": "inactive: 10.2%"}, {"smiles": "COC(=O)C[C@H]1c2cc(C(F)(F)F)ccc2S(=O)(=O)N1C1CCCC1", "activity change": "inactive: -1.85%"}, {"smiles": "CCn1c(NC(=O)Nc2cccc(C)c2C)cc2sccc21", "activity change": "inconclusive: -33.9% [inhibitor]"}, {"smiles": "Cc1ccc(-n2nc3c(c2NC(=O)/C=C\\c2ccc4c(c2)OCO4)CSC3)c(C)c1", "activity change": "inconclusive: -35.5% [inhibitor]"}, {"smiles": "CC1(C)CC(=O)C2=C(C1)NC(SCC(=O)Nc1ccccc1)=C(C#N)C21CCCCC1", "activity change": "inactive: 9.6%"}, {"smiles": "c1ccc(COc2cccc(CN3CCN(c4ccccn4)CC3)c2)cc1", "activity change": "inactive: 11%"}, {"smiles": "O=C(CSc1ccsc1[N+](=O)[O-])N1CCN(c2ccc(Cl)cc2)CC1", "activity change": "inconclusive: -51% [inhibitor]"}, {"smiles": "Cc1onc(-c2ccccc2)c1C(=O)Nc1nnc(COc2ccc(Cl)cc2)s1", "activity change": "inactive: -15.6%"}, {"smiles": "CSC1SCC2C(=O)N(C)C(C(C)C)C(=O)OCC(NC(=O)c3cnc4ccccc4n3)C(=O)NC(C)C(=O)N(C)C1C(=O)N(C)C(C(C)C)C(=O)OCC(NC(=O)c1cnc3ccccc3n1)C(=O)NC(C)C(=O)N2C", "note": "(centres undefined)", "activity change": "inconclusive: -55.2% [inhibitor]"}, {"smiles": "Cc1ccc(S(=O)(=O)N2CCCC(C(=O)NC3CC3)C2)cc1", "note": "(centres undefined)", "activity change": "inactive: -2.69%"}, {"smiles": "CC(C)[C@@H](CO)NC(=O)c1ccc2c3n(nc2c1)-c1ccccc1CO3", "activity change": "inconclusive: -47.4% [inhibitor]"}, {"smiles": "Cc1ccc(S(=O)(=O)N2[C@@H](c3ccc(F)cc3)C(C(=O)O)=CC[C@H]2c2cccc(C)c2)cc1", "activity change": "inconclusive: -45.1% [inhibitor]"}, {"smiles": "CCN(CC(=O)NCc1cccs1)CC(=O)Nc1ccccc1C", "activity change": "inconclusive: -30.6% [inhibitor]"}, {"smiles": "CCCc1ccc(-c2ccc(F)c(N)c2)nc1", "activity change": "inconclusive: -45.8% [inhibitor]"}, {"smiles": "Cc1ccc(CN2CCSc3ccc(C(=O)N4CCOCC4)cc32)cc1", "activity change": "inactive: -0.725%"}, {"smiles": "Cc1cc(N/N=C/c2ccc(O)cc2O)nc(-c2ccccc2O)n1", "activity change": "inconclusive: -36.4% [inhibitor]"}, {"smiles": "COc1ccc2[nH]c(C(=O)N/N=C/c3ccccc3OC)cc2c1", "activity change": "inactive: -0.884%"}, {"smiles": "O=C(c1ccc(Cn2cc(Br)cn2)o1)N1N=C(C(F)F)CC1(O)C(F)F", "note": "(centres undefined)", "activity change": "inactive: -18.7%"}, {"smiles": "Cc1ccc(NC(=O)Cn2cc(C(F)(F)F)cc(Cl)c2=O)cc1Cl", "activity change": "inconclusive: -30.2% [inhibitor]"}, {"smiles": "O=C(Nc1cccc(O)c1)c1ccc(NC(=O)C2CCCO2)cc1", "note": "(centres undefined)", "activity change": "inconclusive: -39.3% [inhibitor]"}, {"smiles": "CN(C)Cc1c(C(C)(C)O)[nH]c2ccc(C(F)(F)F)cc12", "activity change": "inconclusive: -34.6% [inhibitor]"}, {"smiles": "COC(=O)C1=C(C)N(Cc2ccccc2)C(=NCc2cccc(Cl)c2)N[C@H]1c1ccccc1", "activity change": "inactive: 0.922%"}, {"smiles": "CC1CCCC(NC(=O)c2ccc3c(c2)OCCO3)C1C", "note": "(centres undefined)", "activity change": "inconclusive: -31.2% [inhibitor]"}, {"smiles": "CCc1cccc(NC(=O)CCCn2nc(C)c3c(C)n(-c4ccccc4)nc3c2=O)c1", "activity change": "inactive: 15.7%"}, {"smiles": "COc1ccc(-n2cc(CNCC3CC(=O)N(C4CC4)C3)c(-c3ccccc3Cl)n2)cc1", "note": "(centres undefined)", "activity change": "inactive: 12.2%"}, {"smiles": "CCOC(=O)N/N=C(\\C)c1ccc(Oc2ncccn2)cc1", "activity change": "inconclusive: -33.3% [inhibitor]"}, {"smiles": "CCN(CC(=O)Nc1ccc(OC)cc1)C(=O)CCc1nc2ccccc2c(=O)[nH]1", "activity change": "inactive: -3.17%"}]}]}
